In PubChem BioAssay AID1963576 (National Center for Advancing Translational Sciences (NCATS), 2024):
Among all 46,000 compounds or so, about 60 (0.1%) were called active. Roughly 3% stayed inconclusive and do not appear here. Calls come from the whole dose curve; as a rule, active = well fitted inhibition curve with a large enough effect; inconclusive = small, poorly fitted or top-dose-only effect; inactive = no such curve, though single readings can be large or run the other way. Some of the results follow.

Assay: Primary qHTS assay for Inhibitors of ovarian cancer metastasis using an organotypic tumor microenvironment (TME) model.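 For Potency: count of GFP cancer cells still attached after washing and fixation.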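 For activity change, negative = inhibition: plate controls were DMSO wells for no effect and tomatine positive control wells for full effect.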 Note: nearly all actives have a fitted effect of over 65% in size.
Details: SKOV3ip1-GFP adhesion/invasion on 3D omental model, fluorescence; series mostly up to 45.8 µM; activity change, negative = inhibition: at the top concentration
Outline: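 Primary human omental fibroblast/mesothelial 3D culture pre-formed 48 h. SKOV3ip1-GFP cells added with compounds (0.36-46 umol/L), incubated 2 h RT/16 h 37 C, fixed; GFP cells quantified at 488/509 nm.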
Potency is the fitted concentration of half-maximal effect.

Activity change, negative = inhibition, inactive:
Cc1nn(CC(=O)NCc2ccco2)c(=O)c2nn(-c3ccccc3)c(C)c12 -9.11%
COc1ccc(N2CCN(C(=O)c3ccc(CS(=O)c4cccc(C)c4)o3)CC2)cc1 (stereo unspecified) 17.3%
COc1ccc(Cl)cc1NC(=O)c1oc2ccc(S(=O)(=O)N3CCCCC3)cc2c1C 3.01%
O=C(CSc1nc2c([nH]c3ccccc32)c(=O)n1-c1ccc(F)cc1)Nc1ccc2c(c1)OCO2 -18%
Cc1ccc(S(=O)(=O)C(CNC(=O)C(=O)NCCc2ccc(F)cc2)c2cccs2)cc1 (stereo unspecified) -1.78%
COc1cc(NC(=O)CSc2ccc(-c3sc(C)nc3C)nn2)cc(OC)c1 -8.03%
Nc1ncc(S(=O)(=O)N2CCN(c3ccccc3)CC2)cn1 -5.77%
Cc1ccc(C)c(N2CCN(c3nc4ccccc4n4nnnc34)CC2)c1 -7.66%
COc1ccc(CCNC(=O)c2c3c(nc4ccccc24)C(=O)N(C2CCCCC2)C3)cc1OC 0.754%
CCN1c2ccccc2-c2nc(SCC(=O)Nc3cc(C)c(Cl)cc3OC)ncc2S1(=O)=O 1.32%
Oc1c(C(c2cccc(Cl)c2)N2CCOCC2)sc2nc(-c3ccco3)nn12 (stereo unspecified) -8.66%
Cc1cc(Br)cc(C)c1OCC(=O)Nc1ccc(S(=O)(=O)Nc2ncccn2)cc1 -8.03%
CCc1nn(CC(=O)NCC(C)c2ccccc2)c(=O)c2cc3c(OC)cccc3n12 (stereo unspecified) 9.86%
Cc1cc(-n2c(C)nc3ccccc3c2=O)ccc1NC(=O)c1cccc([N+](=O)[O-])c1C 1.57%
O=C(NCCc1csc(-c2ccc(C(F)(F)F)cc2)n1)c1ccccc1Cl -8%
CCOCCc1nn2c(=O)cc(COC(=O)c3ccccc3Br)nc2s1 12.2%
Cc1oc(-c2ccccc2F)nc1Cn1c(SCc2cccc(Cl)c2)nc2ccncc21 -6.65%
N#C/C(=C\c1ccc(-c2ccc(Br)cc2)o1)C(=O)Nc1ccccc1O -0.955%

outcome, inactive:
COC(=O)CC1Oc2ccc(Cl)cc2-n2cc(-c3ccc(C)cc3)nc21 (stereo unspecified)
O=C(Nc1ccc(F)c(Cl)c1)C1CCN(c2ncccn2)CC1
O=C(COc1ccc(F)cc1)NCc1ccc2c(c1)CCN2C(=O)c1ccc(F)cc1
COCCn1c(=O)[nH]c2cc(C(=O)N3CCN(c4ccc(F)cc4)CC3)ccc2c1=O
COC(=O)c1ccccc1NC(=O)C1CCCN(C(=O)c2cnn(-c3ccc(F)cc3)c2-n2cccc2)C1 (stereo unspecified)
Cc1cccc(OCC(=O)Nc2ccc(S(=O)(=O)N(Cc3ccccc3)c3ccccc3)cc2)c1
Cc1ccc(-n2ncc3c(N4CCN(Cc5ccccc5)CC4)ncnc32)cc1C

Potency, active:
COc1cc2c(NC3CCN(C(C)C)CC3)nc(C3CCCCC3)nc2cc1OCCCN1CCCC1 11.8 µM
